Results are given in words; binding and its absence hold for the method and conditions named. In cells and extracts the contact can be indirect. Some entries that bind do so weakly or less than the wild type. Where a sequence is shown, tags or fusion partners need not be part of it.
Key:
[1] = target: T1, GST-Xbp1 length variant aa 574-647 (S. cerevisiae); test: pull-down; GST fusions of repressors (full-length or length variants) immobilised on GSH sepharose, incubated with bacterial total protein extracts containing HA-tagged Sin3, Cyc8 or Tup1 (or Tup1 length variants); elution with free GSH, anti-HA blot (Figs. 1, 3, 4, 5); only the target purified
T1 sequence: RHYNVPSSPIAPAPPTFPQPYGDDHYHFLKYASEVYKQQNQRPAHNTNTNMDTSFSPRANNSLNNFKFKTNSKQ

Protein sequences, listed by entry. Tags and fused reporters are not part of them. Lines headed by an entry give the natural chain unless they say otherwise; changes in a name come on top.
UniProt P22579: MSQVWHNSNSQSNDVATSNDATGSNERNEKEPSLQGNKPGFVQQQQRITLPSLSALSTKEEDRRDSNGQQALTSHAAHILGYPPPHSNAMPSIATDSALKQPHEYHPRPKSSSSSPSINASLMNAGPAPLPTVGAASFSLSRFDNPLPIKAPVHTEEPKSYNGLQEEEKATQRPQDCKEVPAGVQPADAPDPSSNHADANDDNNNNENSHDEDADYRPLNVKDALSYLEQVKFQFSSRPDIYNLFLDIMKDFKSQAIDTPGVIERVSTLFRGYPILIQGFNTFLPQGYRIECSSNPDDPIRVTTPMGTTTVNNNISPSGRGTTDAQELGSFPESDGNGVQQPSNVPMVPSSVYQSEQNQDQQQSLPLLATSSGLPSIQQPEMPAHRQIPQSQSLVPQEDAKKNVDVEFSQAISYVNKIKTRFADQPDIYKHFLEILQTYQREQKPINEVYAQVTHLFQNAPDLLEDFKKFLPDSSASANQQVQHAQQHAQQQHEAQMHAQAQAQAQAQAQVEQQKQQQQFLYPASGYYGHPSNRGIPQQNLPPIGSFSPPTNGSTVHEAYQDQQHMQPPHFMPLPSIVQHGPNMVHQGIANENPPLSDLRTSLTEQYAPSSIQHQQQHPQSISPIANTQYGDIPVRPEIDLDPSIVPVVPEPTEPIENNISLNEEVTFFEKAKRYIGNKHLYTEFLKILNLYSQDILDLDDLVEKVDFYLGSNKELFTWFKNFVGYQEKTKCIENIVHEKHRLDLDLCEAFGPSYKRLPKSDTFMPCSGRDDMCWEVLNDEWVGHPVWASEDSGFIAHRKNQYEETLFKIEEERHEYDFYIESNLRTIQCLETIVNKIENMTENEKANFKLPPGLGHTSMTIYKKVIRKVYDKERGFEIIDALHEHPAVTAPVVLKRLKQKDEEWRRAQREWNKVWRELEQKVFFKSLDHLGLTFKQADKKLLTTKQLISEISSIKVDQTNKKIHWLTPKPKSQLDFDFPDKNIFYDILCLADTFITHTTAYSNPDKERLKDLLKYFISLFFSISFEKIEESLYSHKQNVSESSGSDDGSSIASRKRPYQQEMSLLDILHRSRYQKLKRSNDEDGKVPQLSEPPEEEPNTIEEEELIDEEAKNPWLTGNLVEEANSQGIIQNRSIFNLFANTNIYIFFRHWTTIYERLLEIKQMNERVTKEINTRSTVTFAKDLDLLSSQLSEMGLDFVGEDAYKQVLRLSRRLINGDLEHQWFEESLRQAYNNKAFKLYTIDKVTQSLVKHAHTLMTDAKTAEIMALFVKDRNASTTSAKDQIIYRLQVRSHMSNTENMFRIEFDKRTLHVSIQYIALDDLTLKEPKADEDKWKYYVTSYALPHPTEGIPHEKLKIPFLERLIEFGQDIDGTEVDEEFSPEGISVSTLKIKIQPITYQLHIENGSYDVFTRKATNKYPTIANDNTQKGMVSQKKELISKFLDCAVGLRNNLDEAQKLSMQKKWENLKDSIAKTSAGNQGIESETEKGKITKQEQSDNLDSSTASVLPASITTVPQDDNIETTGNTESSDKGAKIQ

[2] = target: T2, GST-Xbp1 length variant aa 430-647 (S. cerevisiae) (UniProt P40489); test: as above
T2 sequence: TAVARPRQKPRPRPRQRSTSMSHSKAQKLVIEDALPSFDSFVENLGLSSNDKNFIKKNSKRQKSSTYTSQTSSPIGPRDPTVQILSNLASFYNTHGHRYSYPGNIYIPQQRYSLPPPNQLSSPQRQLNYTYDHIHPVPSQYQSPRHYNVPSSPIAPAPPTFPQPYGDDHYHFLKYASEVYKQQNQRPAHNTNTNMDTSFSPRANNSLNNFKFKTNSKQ

[3] = target: T3, GST-Yox1 length variant aa 220-280 (S. cerevisiae) (UniProt P34161); test: as above
T3 sequence: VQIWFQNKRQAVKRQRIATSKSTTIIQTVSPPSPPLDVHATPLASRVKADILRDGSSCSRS

[4] = target: T4, GST-Xbp1 length variant aa 1-430 (S. cerevisiae) (UniProt P40489); test: as above
T4 sequence: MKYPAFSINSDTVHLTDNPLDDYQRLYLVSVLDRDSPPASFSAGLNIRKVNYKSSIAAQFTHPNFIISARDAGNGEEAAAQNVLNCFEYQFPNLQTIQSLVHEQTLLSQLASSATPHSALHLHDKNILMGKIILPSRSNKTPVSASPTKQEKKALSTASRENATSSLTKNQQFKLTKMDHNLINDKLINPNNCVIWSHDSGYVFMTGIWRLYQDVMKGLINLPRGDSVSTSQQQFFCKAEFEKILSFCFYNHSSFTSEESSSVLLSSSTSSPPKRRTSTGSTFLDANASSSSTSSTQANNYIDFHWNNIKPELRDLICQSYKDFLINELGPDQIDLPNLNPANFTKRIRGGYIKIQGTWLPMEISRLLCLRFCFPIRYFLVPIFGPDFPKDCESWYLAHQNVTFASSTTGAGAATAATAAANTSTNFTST

[5] = target: T5, GST-Dal80 length variant aa 151-200 (S. cerevisiae); test: as above
T5 sequence: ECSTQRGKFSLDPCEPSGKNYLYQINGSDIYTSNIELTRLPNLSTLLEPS

[6] = target: T6, GST-Rdr1 length variant aa 364-455 (S. cerevisiae); test: pull-down; GST fusions of repressor length variants used for binding studies with epitope-tagged corepressors (Supporting Online Fig. 1; its legend was not shown, source of the extracts and Sin3 construct not stated); only the target purified
T6 sequence: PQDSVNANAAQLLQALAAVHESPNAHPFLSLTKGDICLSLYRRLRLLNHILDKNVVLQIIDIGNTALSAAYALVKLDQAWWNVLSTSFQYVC

[7] = target: T7, GST-Rox1 length variant aa 124-200 (S. cerevisiae); test: as above
T7 sequence: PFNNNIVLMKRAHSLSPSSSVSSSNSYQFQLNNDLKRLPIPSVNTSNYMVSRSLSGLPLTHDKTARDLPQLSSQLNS

Measured: binding

HA-Sin3 (aa 1-480, comprising PAH1 and PAH2; pJL34) (from UniProt P22579 1-480) (domain or fragment)
not listed: [6] | [7]
binds: all other assays above

epitope-tagged Sin3 used in Supporting Online Fig. 1 (construct not stated) (from UniProt P22579 1-1536)
binds: [6] | [7]

Source: publication PMC10163088
